This is one part of the list. Shown are side measurements of this screen, not its main read-out; they come without a call.
Key:
Test in all cases: Primary Screen for Target Class Profiling of Small Molecule Inhibitors of Methyltransferases
[1] = molecular target: Glycine N-methyltransferase (Homo sapiens) (UniProt Q14749); settings: purified enzyme, MTase-Glo SAH luminescence; measured here: GNMT inhibition; at 40 µM; stronger effect = lower value
Method in brief: (§1)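 Each enzyme was reacted with SAM and its substrate, with compounds tested once at 40 uM; SAH formed was read by MTase-Glo luminescence.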

[2] = molecular target: Guanidinoacetate N-methyltransferase (Homo sapiens) (UniProt Q14353); settings: purified enzyme, MTase-Glo SAH luminescence; measured here: GAMT inhibition; at 40 µM; stronger effect = lower value
Method in brief: as §1

[3] = molecular target: Histamine N-methyltransferase (Homo sapiens) (UniProt P50135); settings: purified enzyme, MTase-Glo SAH luminescence; measured here: HNMT inhibition; at 40 µM; stronger effect = lower value
Method in brief: as §1

[4] = molecular target: Nicotinamide N-methyltransferase (Homo sapiens) (UniProt P40261); settings: purified enzyme, MTase-Glo SAH luminescence; measured here: NNMT inhibition; at 40 µM; stronger effect = lower value
Method in brief: as §1

[5] = molecular target: Phenylethanolamine N-methyltransferase (Homo sapiens) (UniProt P11086); settings: purified enzyme, MTase-Glo SAH luminescence; measured here: PNMT inhibition; at 40 µM; stronger effect = lower value
Method in brief: as §1
On the % scale 0 is the no-effect control and ±100 the full control effect.

SMILES	activity change, negative = inhibition [1]	activity change, negative = inhibition [2]	activity change, negative = inhibition [3]	activity change, negative = inhibition [4]	activity change, negative = inhibition [5]
CC(=O)Nc1c2n(c3ccccc13)CC(C)(C(=O)NC1CCCCCC1)N(Cc1ccco1)C2=O (stereo unspecified)	1.04%	0%	7.89%	-1.14%	5.09%
Cc1ccc(Cn2c(=O)c3ccc(C(=O)NC4CCCC4)cc3n3c(=O)n(Cc4ccccc4)nc23)cc1	4.48%	0.104%	7.81%	3.9%	7.11%
CN(C(=O)c1cn2c(-c3ccc(C(F)(F)F)cc3)cnc2cn1)c1ccc(C#N)cc1		3.21%		-13.1%	-3.89%
OC1(c2csc(CN3CCOCC3)n2)CCN(C2CCCC2)CC1	-1.91%	3.71%	-11.7%	1.22%	13.3%
O=C1CN(Cc2c(F)cccc2Cl)S(=O)(=O)c2ccccc2N1Cc1ccccc1	12.7%	3.24%	13.1%	2.98%	10.2%
CCCCN1C(=O)c2cc3ccc(OC)cc3n2CC1(C)C(=O)NC1CCCC1 (stereo unspecified)	-7.03%	2.08%	-1.43%	-5.63%	-3.16%
O=C(c1ccc(Cl)cc1)N1CCN(c2ccnc3cc(Cl)ccc23)CC1	-18.2%	-5.76%	-17.4%	-50.3%	-7.22%
CN(C)c1nccnc1OC1CCN(S(=O)(=O)Cc2ccccc2)C1 (stereo unspecified)	-6.15%	-6.68%	-6.9%	-8.88%	-4.63%
CCCn1c(=O)c2ccc(C(=O)NCC(C)C)cc2n2c(=O)n(CC(=O)Nc3cccc(Cl)c3)nc12	4.14%	1.62%	4.27%	-3.54%	-1.1%
CCC(C)NC(=O)c1ccc2c(=O)n(C(C)C)c3nn(CC(=O)Nc4ccccc4)c(=O)n3c2c1 (stereo unspecified)	-1.44%	3.09%	-3.31%	-2.91%	-0.069%
COc1cc2nc(N3CCN(C)CC3)nc(NC3CCN(Cc4ccccc4)CC3)c2cc1OC	-6.46%	-8.51%	-71%	-24.3%	-5.24%
OCC1(Cc2ccccc2F)CCCN(c2nnnn2-c2ccccc2)C1 (stereo unspecified)	-9.01%	-8.31%	-4.08%	-18.5%	-7.43%
CC(C)CC1NC(=O)C(C)NC(=O)C(CC(C)C)OC(=O)CCCNC1=O (stereo unspecified)	4.03%	2.78%	8.33%	-9.89%	-2.3%
CC(C)Cn1c(=O)c2ccc(C(=O)NC3CCCCC3)cc2n2c(=O)n(CC(=O)c3ccccc3)nc12	5.58%	0.973%	7.35%	0.231%	4.25%
CCn1c(=O)c2c(cc(C)n2C)n(CC(=O)Nc2ccccc2C)c1=O	-2.77%	-1.4%	-0.309%	-8.24%	-1.82%
COc1ccc(-c2nnn3c2nc(N2CCOCC2)c2ccccc23)cc1	-22%	-6.2%	-16.5%	-19.6%	-32.7%
CCNC(=O)[C@H]1CCCN1C(=O)[C@H](CCCN=C(N)N)NC(=O)[C@H](CC(C)C)NC(=O)[C@H](CC(C)C)NC(=O)[C@@H](Cc1ccc(O)cc1)NC(=O)[C@H](CO)NC(=O)[C@@H](Cc1c[nH]c2ccccc12)NC(=O)[C@H](Cc1cnc[nH]1)NC(=O)[C@@H]1CCC(=O)N1		9.91%		-9.26%	-4.07%
